In paper PMC4336329 (PLoS ONE, 2015):
About 14,000 (4.5%) of roughly 310,000 compounds showed an effect of 50% or more. Effects have a minus sign here. The list shows a part of the results.

The compounds below were run against human ether-à-go-go-related gene (hERG) potassium channel (human, UniProt Q12809) (assay: primary screen, population patch clamp on CHO cells stably expressing hERG).
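Also: peak tail current of the secondary pulse compared with the same well before compound.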

Sequence of human ether-à-go-go-related gene (hERG) potassium channel (Q12809 whole entry, looked up): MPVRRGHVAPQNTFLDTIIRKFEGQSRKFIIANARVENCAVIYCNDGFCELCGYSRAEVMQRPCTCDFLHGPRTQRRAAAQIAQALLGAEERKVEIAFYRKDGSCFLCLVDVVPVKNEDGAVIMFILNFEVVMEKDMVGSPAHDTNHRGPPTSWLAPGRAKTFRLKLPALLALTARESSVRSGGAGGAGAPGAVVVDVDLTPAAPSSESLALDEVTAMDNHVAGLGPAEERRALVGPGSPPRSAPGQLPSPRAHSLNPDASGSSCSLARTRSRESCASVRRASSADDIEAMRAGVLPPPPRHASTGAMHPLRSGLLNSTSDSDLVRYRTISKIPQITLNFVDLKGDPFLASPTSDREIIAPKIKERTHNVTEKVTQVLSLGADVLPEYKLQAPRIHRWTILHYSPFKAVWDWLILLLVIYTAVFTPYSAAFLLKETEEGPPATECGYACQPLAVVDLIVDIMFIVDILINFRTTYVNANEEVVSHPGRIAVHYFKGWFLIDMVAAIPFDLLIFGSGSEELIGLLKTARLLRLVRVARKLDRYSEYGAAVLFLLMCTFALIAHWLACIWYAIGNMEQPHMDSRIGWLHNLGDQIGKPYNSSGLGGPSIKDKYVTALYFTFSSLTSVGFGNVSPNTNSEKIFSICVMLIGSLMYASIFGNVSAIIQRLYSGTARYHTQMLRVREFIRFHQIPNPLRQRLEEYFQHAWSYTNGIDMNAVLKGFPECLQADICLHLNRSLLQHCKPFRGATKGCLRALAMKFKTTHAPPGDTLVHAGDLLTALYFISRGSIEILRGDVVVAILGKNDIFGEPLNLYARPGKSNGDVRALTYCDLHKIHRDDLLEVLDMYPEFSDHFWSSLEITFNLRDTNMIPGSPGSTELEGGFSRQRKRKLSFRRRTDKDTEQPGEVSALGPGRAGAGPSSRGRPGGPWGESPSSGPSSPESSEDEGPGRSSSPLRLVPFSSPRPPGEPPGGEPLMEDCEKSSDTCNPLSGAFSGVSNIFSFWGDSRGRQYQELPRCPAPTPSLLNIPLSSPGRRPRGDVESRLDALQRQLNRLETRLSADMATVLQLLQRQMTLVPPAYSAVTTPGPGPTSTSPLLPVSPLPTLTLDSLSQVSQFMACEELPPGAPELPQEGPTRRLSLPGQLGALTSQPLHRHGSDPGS

| Compound | hERG current change (%, negative = inhibition) at 10uM [%] |
| --- | --- |
| Cc1cccc(OCC(=O)Nc2ccc3c(c2)nc(CCN2CCN(C)CC2)n3C)c1 | -37.1 |
| CC(=O)Nc1ccc(S(=O)(=O)NCCSCc2ccccc2Cl)cc1 | 2.92 |
| CCOC(=O)C1CCCN(C(=O)c2ccc3c(c2)NC(=O)C(N2CCOCC2)S3)C1 (centres unmarked) | 19.7 |
| Cc1ccc(S(=O)(=O)N2CCC3(CC2)OCCO3)c(C)c1 | 11.8 |
| CN(C)/C=N/C1=C(C#N)C(c2ccc(Br)cc2)c2ccc3ccccc3c2O1 (centres unmarked) | 31.5 |
| Cc1ccc(N2C(=O)CC(N3CCN(c4ccc(F)cc4)CC3)C2=O)c(C)c1 (centres unmarked) | -17.7 |
| CN(Cc1ccccc1F)C(=O)CCNC(=O)c1ccc(C(C)(C)C)cc1 | -31.4 |
| Cc1cccc(OCC(=O)N2CCN(C(=O)c3ccc([N+](=O)[O-])cc3)CC2)c1 | -68.8 |
| CCOC(=O)CN(C#N)c1nc(C)cc(C)n1 | -7.84 |
| O=C(c1c(O)cc(O)cc1O)C1c2c(cc(O)c3c2O[C@H](c2ccc(O)cc2)[C@@H](O)C3)OC1c1ccc(O)cc1 (some centres unmarked) | 13.8 |
| N#C/C(=C/c1ccc(-c2ccc(S(N)(=O)=O)cc2)o1)c1nc2ccccc2s1 | 9.67 |
| CC(=O)Nc1ccc(S(=O)(=O)NCC(=O)OCC(=O)N2CCN(c3ccccc3)CC2)cc1 | 1.78 |
| O=C1CSC(c2cccc([N+](=O)[O-])c2)N1CCc1ccccc1 (centres unmarked) | -20.2 |
| COc1ccccc1NC(=O)CSc1ncc(CO)n1Cc1ccc(F)cc1 | 0.747 |
| Cc1ccc(/C=N/NC(=O)CN2C(=O)CSc3ccccc32)o1 | 11.6 |
| COc1ccc(C2C(C(=O)N3CCN(c4ccccc4F)CC3)c3ccccc3C(=O)N2C)cc1 (centres unmarked) | -35.2 |
| Cc1ccccc1NC(=S)N1CCN(C(=O)c2ccco2)CC1 | 1.38 |
| CCc1ccc(CCC(=O)Nc2ccc(OC)cc2)o1 | 4.65 |
| COc1ccccc1CNC(=O)Cn1cc2c(n1)CCCC2 | -2.57 |

| Compound | hERG current change (%, negative = inhibition) at 10uM [%] |
| --- | --- |
| Clc1ccc(CN2CCCCCC2)cc1.O=C(O)C(=O)O | -9.46 |
| CCCC(=O)Nc1ccc2c(c1)COC2=O | 16.8 |
| Cc1ccc(CC2CC(=O)N(c3ccncc3)C2=O)cc1 (centres unmarked) | 6.32 |
| CN(C(=O)CCNC(=O)Cn1ccc2ccccc2c1=O)c1ccc(Br)cc1 | 17.5 |
| COc1ccc([N+](=O)[O-])cc1NS(=O)(=O)c1ccccc1 | 8.94 |
| CN(C)CCCN=C(NO)c1ccc(Cl)cc1Cl | 15.2 |
| CC(=O)N=c1sc2ccccc2n1C | 11.7 |
| O=C(/C=C/c1ccco1)N1CCc2ccccc21 | 4.9 |
| Cc1ccc(NC(=O)Cn2ccc([N+](=O)[O-])n2)cc1C | 14.2 |
| N#C/C(=C\c1ccc(Cl)cc1)c1nc2ncccc2[nH]1 | -15.1 |
| O=S(=O)(c1cccs1)N1CCN(Cc2cccc(F)c2)CC1 | -1.83 |
| N#Cc1c(N)n(-c2ccccc2N)c2nc3ccccc3nc12 | 15.1 |
| Cc1ccc(NC(=O)CCNS(=O)(=O)c2ccc3c(c2)oc(=O)n3C)cc1 | -13.2 |
| Cc1ccccc1NC(=O)c1ccc(-n2cncn2)nc1 | -14.1 |
| Fc1ccc(C2c3[nH]c4ccccc4c3CCN2CCCn2cccn2)cc1 (centres unmarked) | -70.1 |
| CCNNC(=O)C(O)(Cc1ccccc1)Cc1ccccc1 | 13.4 |
| CCN1C(=O)C(CC(=O)Nc2cc(C)ccc2C)SC1=Nc1ccc(S(N)(=O)=O)cc1 (centres unmarked) | -13.2 |
| O=C(Nc1ccc(CN2CCOCC2)cc1)c1ccc(N2CCCC2)c([N+](=O)[O-])c1 | -21.4 |
| COc1ccc(C2=NN(C(=O)c3ccc(Cl)c([N+](=O)[O-])c3)C(c3ccccc3)C2)cc1 (centres unmarked) | 10.4 |

| Compound | hERG current change (%, negative = inhibition) at 10uM [%] |
| --- | --- |
| COc1ccc(OC)c(NS(=O)(=O)c2ccc(Cl)s2)c1 | -4.52 |
| O=C(COC(=O)c1cc(-c2cccs2)nn1-c1ccccc1)Nc1ccc(Cl)c([N+](=O)[O-])c1 | 2.93 |
| CCn1cc(C(C)NC(=O)COc2ccc(Cl)cc2C)c(C)n1 (centres unmarked) | 13.7 |
| Cc1ccc(C2=CC(c3cccs3)n3nnnc3N2)cc1 (centres unmarked) | -1.97 |
| CCN1CCN(C(c2cccs2)C(C)NC(=O)c2c(F)cccc2F)CC1 (centres unmarked) | -7.77 |
| COc1ccc([C@@H]2[C@H]3C(=O)N(c4cccc(C(F)(F)F)c4)C(=O)[C@H]3ON2C)cc1 | -12.1 |
| O=C(C1CC1)N1CCN=C1SCc1cccc(F)c1 | -2.29 |
| CC(=O)c1ccc(OCc2cc(C(=O)N(C)Cc3ccccn3)no2)cc1 | -26.1 |
| Cc1oc(-c2cccc(Cl)c2)nc1CN1CCC(C(=O)NCc2ccco2)CC1 | -78 |
| O=C(COC(=O)c1ccccc1OCc1ccc(Cl)cc1)NC1CC1 | 8.16 |
| CC(=O)c1sc2c(c1N)c(=O)[nH]c(=O)n2-c1ccccc1 | 10.2 |
| CCc1ccc(NC(=O)C(C)OC(=O)c2c(C)nn(Cc3ccccc3)c2Cl)cc1 (centres unmarked) | 2.72 |
| Cc1cccc(-n2c(O)c(C=Nc3cccc(O)c3)c3ccccc3c2=O)n1 | 0.602 |
| O=C(O)C1C2CCC(C2)C1C(=O)NCc1ccco1 (centres unmarked) | -8.3 |
| COc1ccc(C(=O)Oc2ccc3c(c2)OCO3)cc1OC | -1.19 |
| CN(C)S(=O)(=O)N(CC(=O)Nc1ccc(F)c(F)c1)c1ccccc1 | -35.4 |
| CC(c1ccncn1)N(C)Cc1nc(Cc2ccccc2F)no1 (centres unmarked) | 34.6 |
| COc1ccc2sc(C)nc2c1NC(C)=O | 9.21 |
